Measured values from PubChem BioAssay AID1346428 (National Center for Advancing Translational Sciences (NCATS), 2018).
Values joined by “and” are separate entries in the source; they are usually repeats but may differ in a detail not shown here. Equal values may be shown once. About 1,200 (2.5%) of roughly 48,000 compounds were called active. Roughly 2% stayed inconclusive and do not appear here.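 Rule for the calls: active = activation of at least 60% and not above a set upper limit (about 1 call in 100 departs from these limits); inconclusive = activation of 40% to 60%, or above that upper limit; inactive = activation under 40%.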 The list shows a part of the results.

biological target: Probable G-protein coupled receptor 32 (Homo sapiens) (UniProt O75388); assay: qHTS for Agonists of Human Resolvin D1 Receptor DRV1; details: CHO-K1 GPR32 beta-arrestin PathHunter luminescence, 90 min; at 76.9 µM; stronger effect = higher value; zero percent set by DMSO-only wells; note: 0% is about no effect
Procedure, shortened: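 Readings come from a cell-based beta-arrestin complementation format: CHO-K1 GPR32 stable cells (2,500/well) treated 90 min with compounds, then beta-Gal substrate added for 1 h before chemiluminescence imaging.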

UniProt O75388, sequence (O75388 whole entry, looked up): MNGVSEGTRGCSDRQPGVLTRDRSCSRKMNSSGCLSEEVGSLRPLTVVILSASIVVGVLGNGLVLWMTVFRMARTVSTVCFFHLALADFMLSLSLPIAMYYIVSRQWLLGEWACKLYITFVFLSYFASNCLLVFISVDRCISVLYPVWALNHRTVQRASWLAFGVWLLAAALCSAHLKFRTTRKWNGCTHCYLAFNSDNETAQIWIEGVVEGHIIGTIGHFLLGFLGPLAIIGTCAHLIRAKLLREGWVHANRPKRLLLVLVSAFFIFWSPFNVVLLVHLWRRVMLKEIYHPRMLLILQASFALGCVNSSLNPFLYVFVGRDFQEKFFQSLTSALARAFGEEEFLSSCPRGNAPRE

Row | SMILES | activation
1 | CCOC(=O)c1c(S(=O)(=O)N2CCC(C(=O)Nc3ccc(C)cc3C)CC2)c(C)n(C)c1C | inactive: -8.69%
2 | Cc1cc(C)cc(NC(=O)c2cnc3sc(N4CCCC4)nn3c2=O)c1 | inactive: -1.6%
3 | COc1cccc(-n2c(SCC(=O)Nc3nnc(C)s3)nc3c([nH]c4ccccc43)c2=O)c1 | inactive: -46.7%
4 | Fc1ccc2[nH]c(-c3cccs3)cc2c1 | inactive: 19.3%
5 | CC(C)Cn1c(=O)c2sccc2n2c(CCCC(=O)N3CCN(c4ccc(F)cc4)CC3)nnc12 | inactive: 0.4%
6 | Cc1cc(CN2CCN(c3cccc(C)c3C)CC2)cs1 | inactive: -19.8%
7 | CCOc1ccc(NC(=O)C2CCCN(S(=O)(=O)c3c(C)noc3/C=C/N(C)C)C2)cc1 (stereo unspecified) | inactive: -16.6%
8 | CCOC(=O)C1=C(CN2CCN(c3ccc(OC)cc3)CC2)NC(=O)NC1c1ccc(Cl)cc1 (stereo unspecified) | inactive: 7.12%
9 | O=C(Nc1cccc(C(F)(F)F)c1)c1cc2nc(-c3ccc4c(c3)OCO4)cc(C(F)(F)F)n2n1 | inactive: 6.61%
10 | CC(C)(C)C(O)/C=C/c1ccc2c(c1)OCO2 (stereo unspecified) | inactive: 29%
11 | Cc1ccc(Cn2cc(C(=O)c3ccc4c(c3)OCO4)c(=O)c3cc(C)ccc32)cc1 | inactive: -22.6%
12 | COc1ccc(C)cc1NC(=O)N1CC(C)Sc2ccccc21 (stereo unspecified) | inactive: -29.6%
13 | Cc1ccc(-c2nc(CSc3nncn4c3cc3occc34)c(C)o2)cc1 | inactive: -26.2%
14 | NCCc1nc2cccnc2n1-c1ccccc1 | inactive: -5.23%
15 | CC1=C(C(=O)Nc2ccc(C)cc2C)C(c2ccc(C(=O)O)cc2)n2nc(SCc3ccccc3)nc2N1 (stereo unspecified) | inactive: -0.943%
16 | Cc1ccc2c(c1)c1c(c(=O)n(-c3ccccc3)c(=O)n1CC(=O)c1ccc(F)cc1)n2C | inactive: 5.37%
17 | CCOc1ccc(CNC(=O)CC(C)n2nc(C)cc2C)cc1OC (stereo unspecified) | inactive: -5.51%
18 | Cc1ccc(NC(=O)c2ccc(CN3CC(=O)N4CCCCC4C3=O)cc2)cc1 (stereo unspecified) | inactive: -20.9%
19 | CCc1nn2c(=O)cc(COC(=O)c3ccc(NC(=O)COc4ccc(C)cc4)cc3)nc2s1 | inactive: -7.6%
20 | Cn1c(SCC(=O)N2CCCc3ccccc32)ncc(C(=O)Nc2ccccc2)c1=O | inactive: -6.96%
21 | CCc1cccc(NC(=O)Cn2c(=O)n(-c3cccc(Cl)c3)c(=O)c3c2c2cc(C)ccc2n3C)c1 | inactive: -8.78%

Row | SMILES | activation
22 | COc1ccc(OC)c(CNC(=O)c2cnc3c(C)cccn3c2=O)c1 | inactive: -4.92%
23 | CCN(c1ccccc1)S(=O)(=O)c1ccc(-c2cc(C)no2)s1 | inactive: -30.3%
24 | Cc1cc(C)cc(NC(=O)CSc2nc(=O)n(Cc3ccccn3)c3c2CCC3)c1 | inactive: -0.987%
25 | CCOC(=O)C(C)Sc1nc(-c2ccccc2Cl)cc(-c2ccccc2)c1C#N (stereo unspecified) | inactive: -2.25%
26 | CSc1ccc(Cn2nnc(C(=O)Nc3ccc(C)cc3Cl)c2N)cc1 | active: 98.5%
27 | CC[C@]1(O)C[C@@H]2CN(CCc3c([nH]c4ccccc34)[C@@](C(=O)OC)(c3cc4c(cc3OC)N(C)[C@H]3[C@@](O)(C(=O)OC)[C@H](OC(C)=O)[C@]5(CC)C=CCN6CC[C@]43[C@@H]65)C2)C1 | inactive: -33.1% and inactive: 3.05%
28 | Cc1ccc(C(=O)COC(=O)C(Cc2c[nH]c3ccccc23)NC(=O)c2ccc(C(C)(C)C)cc2)cc1 (stereo unspecified) | inactive: -16.5%
29 | Cc1ccccc1C(=O)Nc1cccc(C(=O)OCc2cc(=O)n3ccsc3n2)c1 | inactive: 3.08%
30 | Cc1ccc2[nH]c(=O)c(CN(C(=O)c3cccc(Cl)c3)C(C)(C)C)cc2c1 | inactive: 8.45%
31 | COc1ccc(-n2cc(-c3ccccc3)c3c(NC4CCCC4)ncnc32)cc1 | inactive: -35.2%
32 | Cc1cccc(Oc2nc3c(c(=O)n(C)c(=O)n3C)n2Cc2ccccc2)c1C | inactive: 21.3%
33 | Cc1cccc(C)c1OCc1cc(=O)n2c3c(sc2n1)CCCC3 | inactive: 22.5%
34 | CC(C)CC(=O)Nc1cc(-c2ccccc2F)nn1-c1ccccc1 | inactive: -17.5%
35 | COCCNC(=O)Cn1c(=O)n(CCCCCC(=O)NCc2ccccc2Cl)c(=O)c2sccc21 | inactive: -21.8%
36 | c1ccc(-c2noc(-c3cccnc3NCc3ccco3)n2)cc1 | inactive: -5.5%
37 | Cc1cccc(Cn2c(SCc3ccc(C(=O)NCc4ccccc4F)cc3)nc3ccncc32)c1 | inactive: -6.81%
38 | Cc1ccc(NC(=O)Cn2c(=O)oc3cc(S(=O)(=O)N4CCCCC4)ccc32)c(Cl)c1 | active: 111%
39 | CCN(CC)CCCNC(=O)CCCn1ncn2c(cc3occc32)c1=O | inactive: -6.87%
40 | COc1ccc(CN(C(=O)c2cc3ccccc3oc2=O)C2CCS(=O)(=O)C2)cc1OC (stereo unspecified) | inactive: -4.95%
41 | CC1CCCCN1C(=O)Cn1ncc2c3ccccc3n(Cc3ccccc3F)c2c1=O (stereo unspecified) | inactive: -19.3%
